Measured values: a compilation of properties of binary mixtures (doi:10.1021/acs.jced.0c00588)
The densities may have been worked out from excess volumes.

Assay: xn = mol fraction of the nth substance listed
Conditions: 102 kPa

O=C(O)C(F)(F)C(F)(F)C(F)(F)C(F)(F)F + CC[n+]1ccn(C)c1.[Cl-]
mass density [kg/m3]
Conditions | x2 = 0.3346 | x2 = 0.5026 | x2 = 0.6636
293.15 K | 1542.9 | 1450.6 | –
298.15 K | 1536.3 | 1445.2 | 1350.6
303.15 K | – | 1439.8 | 1346.2
308.15 K | 1523.4 | 1434.5 | 1342
313.15 K | – | 1429.2 | 1337.7
318.15 K | 1510.4 | – | 1333.4
323.15 K | 1504 | – | 1329.8
328.15 K | 1497.7 | 1413.5 | 1325.4
333.15 K | 1491.3 | – | –
338.15 K | – | – | 1317.1
343.15 K | 1478.4 | 1397.9 | 1312.9
348.15 K | 1472 | – | 1308.6
353.15 K | – | 1387.5 | 1304.4
